{"source": "paper PMC8419023", "about": "(Structure (London, England : 1993), 2021)", "binders": {"B1": {"name": "Skp1-Skp2^Δ1−16 (complex)", "chain 1": "not shown", "chain 2": "MPSIKLQSSDGEIFEVDVEIAKQSVTIKTMLEDLGMDPVPLPNVNAAILKKVIQWCTHHKDDPGSGGTDDIPVWDQEFLKVDQGTLFELILAANYLDIKGLLDVTCKTVANMIKGKTPEEIRKTFNIKNDFTEEEEAQVRKENQWCEEK"}}, "target": "GST CDK2-cyclin A^173−432 (human, UniProt P24941; P20248 in part)", "experiment": "pull-down"}
{"binder": "B1", "values": [{"measurement": "binding result", "result": "binds"}]}
